Reference: the supplement of paper PMC5919970
Structures can show the parent of a compound that is named as a salt. Whole data set: some 2,000 compounds, median “fractional viability relative to vehicle” near 0.92, cut for the lowest 2% near 0.11. Some of the results follow.

Test system: TYKNU
Assay: fractional viability relative to vehicle; TYKNU is a high-grade serous ovarian cancer line; higher = less growth inhibition
Conditions: 72 h, genotype: OPA1 knockout (sgOPA1 #2)
Method in brief: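 TYKNU control cells or lentiCRISPRv2 knockout derivatives were seeded at 500 cells per well into drug-stamped 384-well plates holding a ~2100-compound library at 2 or 10 μM, in duplicate. Cells were grown at 37 °C in 5% CO2 in RPMI 1640 with 10% FBS, and drug treatment lasted 72 h. Viability was read by Cell Titer Glo luminescence. Duplicate treatment wells were averaged and normalised to duplicate control wells from the same plate position.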

Row | SMILES | fractional viability (2uM) | fractional viability (10uM)
1 | COc1ccc(C[C@@H]2c3cc(OC)c(OC)cc3CC[N@+]2(C)CCC(=O)OCCCCCOC(=O)CC[N@@+]2(C)CCc3cc(OC)c(OC)cc3[C@H]2Cc2ccc(OC)c(OC)c2)cc1OC [Cisatracurium Besylate] | 1.01 | 0.743
2 | CCOC(=O)c1c(C)n(C)c2ccc(O)cc12 [Mecarbinate] | 1.04 | 1.11
3 | CC(N)C12CC3CC(CC(C3)C1)C2 (stereo unspecified) [Rimantadine] | 1.16 | 0.989
4 | CN(CCOc1ccc(CC2SC(=O)NC2=O)cc1)c1ccccn1 (stereo unspecified) [Rosiglitazone] | 0.878 | 0.729
5 | CN(CCOc1ccc(CC2SC(=O)NC2=O)cc1)c1ccccn1 (stereo unspecified) [Rosiglitazone HCl] | 1.05 | 1.02
6 | CN(CCOc1ccc(CC2SC(=O)NC2=O)cc1)c1ccccn1 (stereo unspecified) [Rosiglitazone maleate] | 0.952 | 0.847
7 | CC(C)C[C@H](NC(=O)[C@H]1O[C@@H]1C(=O)O)C(=O)NCCCCN=C(N)N | 0.888 | 0.776
8 | CN(C)Cc1ccc(-c2nc3cccc4c3n2CCNC4=O)cc1 | 0.997 | 0.847
9 | O=C(/C=C\n1cnc(-c2cc(C(F)(F)F)cc(C(F)(F)F)c2)n1)NNc1cnccn1 | 0.22 | 0.243
10 | Cc1[nH]c(/C=C2\C(=O)Nc3ccc(S(=O)(=O)N(C)c4cccc(Cl)c4)cc32)c(C)c1C(=O)N1CCN(C)CC1 | 1.37 | 0.133
11 | CCC1C/C(=C\c2cccnc2)C(=O)/C(=C/c2cccnc2)C1 (stereo unspecified) | 0.442 | 0.189
12 | Oc1c2ccccc2c2c3c(cccc13)N=N2 | 1.68 | 1.27
13 | COC(=O)[C@@H]1[C@H]2C[C@H]3c4[nH]c5ccccc5c4CCN3C[C@@H]2CC[C@@H]1O [Yohimbine HCl] | 1.06 | 0.849
14 | CC(C)NCC(O)COc1cccc2ccccc12 (stereo unspecified) [Propranolol HCl] | 0.809 | 1.12
15 | Cc1nc(NC(=O)N2CCC[C@H]2C(N)=O)sc1-c1ccnc(C(C)(C)C(F)(F)F)c1 | 0.866 | 0.631
16 | Cc1cc(C(O)=C2C(=O)C(=O)N(CCCN3CCOCC3)C2c2ccncc2)ccc1OCc1ccccc1 (stereo unspecified) | 0.973 | 0.814
17 | Nc1ncnc2c1c(-c1cnc3[nH]ccc3c1)nn2C1CCCC1 | 0.547 | 0.343
18 | O=C1CCc2cc(OCCCCc3nnnn3C3CCCCC3)ccc2N1 [Cilostazol] | 1.07 | 1.02
19 | N#C[C@@H]1C[C@@H]2C[C@@H]2N1C(=O)[C@@H](N)C12CC3CC(CC(O)(C3)C1)C2 [Saxagliptin] | 0.909 | 0.958
20 | CCS(=O)(=O)CCn1c([N+](=O)[O-])cnc1C [Tinidazole] | 1.66 | 1.13
21 | CCOC(=O)c1ccc(NC(=O)O[C@H]2[C@H](OC(=O)Nc3ccc4c(c3)OCO4)[C@@H](OC(=O)Nc3ccc4c(c3)OCO4)[C@@H](OC)O[C@@H]2CO)cc1 | 1.07 | 0.86
22 | CCNC(=O)C#Cc1ccc2c(C(=Nc3ccc(CN(C)C)cc3)c3ccccc3)c(O)[nH]c2c1 | 0.276 | 0.0913
23 | CCCCOc1cc(C(=O)NCCN(CC)CC)c2ccccc2n1 [Dibucaine HCl] | 1.01 | 0.958

Row | SMILES | fractional viability (2uM) | fractional viability (10uM)
24 | COc1cc(Nc2nc3ccccc3nc2NS(=O)(=O)c2ccc(NC(=O)c3ccc(C)c(OC)c3)cc2)cc(OC)c1 | 1 | 1.04
25 | CCC1=C(C)CN(C(=O)NCCc2ccc(S(=O)(=O)NC(=O)N[C@H]3CC[C@H](C)CC3)cc2)C1=O [Glimepiride] | 1.05 | 1.02
26 | CCC(=O)O[C@]1(C(=O)CCl)[C@@H](C)C[C@H]2[C@@H]3C[C@H](F)C4=CC(=O)C=C[C@]4(C)[C@@]3(F)[C@@H](O)C[C@@]21C [Halobetasol Propionate] | 1.08 | 0.662
27 | CCN1CC(CCN2CCOCC2)C(c2ccccc2)(c2ccccc2)C1=O (stereo unspecified) [Doxapram HCl] | 0.944 | 0.875
28 | CN(C)Cc1cccc(N/C(=C2\C(=O)Nc3cc(C(N)=O)ccc32)c2ccccc2)c1 | 0.93 | 0.993
29 | OCc1cc(C(O)CNCCCCCCOCCCCc2ccccc2)ccc1O (stereo unspecified) [Salmeterol Xinafoate] | 0.922 | 0.798
30 | CC(=O)OCC(=O)[C@@]12N=C(C)O[C@@H]1C[C@H]1[C@@H]3CCC4=CC(=O)C=C[C@]4(C)[C@H]3[C@@H](O)C[C@@]12C [Deflazacort] | 1.14 | 1.21
31 | Cn1nccc1Nc1nccc(-c2ccn([C@H](CO)c3ccc(Cl)c(F)c3)c(=O)c2)n1 | 0.635 | 0.427
32 | Cc1nc2n(c(=O)c1CCN1CCC(c3noc4cc(F)ccc34)CC1)CCCC2 [Risperidone] | 0.965 | 0.732
33 | CNCCC(Oc1ccc(C(F)(F)F)cc1)c1ccccc1 (stereo unspecified) [Fluoxetine HCl] | 1.24 | 0.774
34 | C[C@@H](CN1CC(=O)NC(=O)C1)N1CC(=O)NC(=O)C1 [Dexrazoxane HCl (ICRF-187, ADR-529)] | 1.03 | 1.1
35 | O=S(=O)(O)CCS [Mesna] | 1.27 | 1.05
36 | CCCCNC(=O)NS(=O)(=O)c1ccc(C)cc1 [Tolbutamide] | 1.09 | 0.981
37 | C[C@@H]1O[C@@H](O[C@H]2[C@H](Oc3cc(O)c(C(=O)CCc4ccc(O)cc4)c(O)c3)O[C@H](CO)[C@@H](O)[C@@H]2O)[C@H](O)[C@H](O)[C@H]1O [Naringin Dihydrochalcone] | 1.09 | 1.02
38 | Cc1cccc(-c2[nH]c(CNc3ccccc3F)nc2-c2ccc3ncnn3c2)n1 | 0.988 | 1.14
39 | O=C(Nc1c(Cl)cncc1Cl)c1ccc(OC(F)F)c(OCC2CC2)c1 [Roflumilast] | 1.12 | 1.01
40 | CCOC(=O)OC(C)OC1=C(C(=O)Nc2ccccn2)N(C)S(=O)(=O)c2ccccc21 (stereo unspecified) [Ampiroxicam] | 0.887 | 0.905
41 | CCCS(=O)(=O)Nc1ccc(F)c(C(=O)c2c[nH]c3ncc(-c4ccc(Cl)cc4)cc23)c1F [Vemurafenib (PLX4032, RG7204)] | 1.13 | 1
42 | CC1(C)S[C@@H]2[C@H](NC(=O)[C@H](NC(=O)N3CCN(S(C)(=O)=O)C3=O)c3ccccc3)C(=O)N2[C@H]1C(=O)O [Mezlocillin Sodium] | 0.892 | 0.979
43 | Cn1c(=O)cc(N2CCC[C@@H](N)C2)n(Cc2ccccc2C#N)c1=O [Alogliptin] | 0.952 | 1.08
44 | Cc1nnc(C(C)C)n1C1C[C@H]2CC[C@@H](C1)N2CC[C@H](NC(=O)C1CCC(F)(F)CC1)c1ccccc1 (stereo in doubt) [Maraviroc] | 0.954 | 1.02
45 | CCCCCCCN(CC)CCCC(O)c1ccc(NS(C)(=O)=O)cc1 (stereo unspecified) [Ibutilide Fumarate] | 0.783 | 0.815
46 | COc1ccc(-c2cc(=O)c3c(O)cc(O[C@@H]4O[C@H](CO[C@@H]5O[C@@H](C)[C@H](O)[C@@H](O)[C@H]5O)[C@@H](O)[C@H](O)[C@H]4O)cc3o2)cc1O [Diosmin] | 1.17 | 1.08

Row | SMILES | fractional viability (2uM) | fractional viability (10uM)
47 | COc1cc(Nc2ncc(F)c(Nc3ccc4c(n3)N(COP(=O)(O)O)C(=O)C(C)(C)O4)n2)cc(OC)c1OC [Fostamatinib (R788)] | 1.07 | 0.482
48 | CNC(=O)Nc1ccc(-c2nc(N3CC4CCC(C3)O4)c3cnn(C4CCC5(CC4)OCCO5)c3n2)cc1 | 0.28 | 0.361
49 | COC1=C2C[C@@H](C)C[C@H](OC)[C@H](O)[C@@H](C)/C=C(\C)[C@H](OC(N)=O)[C@@H](OC)/C=C\C=C(/C)C(=O)NC(=CC1=O)C2=O [Geldanamycin] | 0.538 | 0.233
50 | CN1CC2c3ccccc3Oc3ccc(Cl)cc3C2C1 (stereo unspecified) [Asenapine] | 1.1 | 0.902
51 | CCCCNc1ncc2c(-c3ccc(CN4CCN(C)CC4)cc3)cn([C@H]3CC[C@H](O)CC3)c2n1 | 0.615 | 0.23
52 | c1ccc2[nH]c(-c3cscn3)nc2c1 [Thiabendazole] | 1.09 | 0.955
53 | Cn1cc(-c2ccc3nnc(C(F)(F)c4ccc5ncccc5c4)n3n2)cn1 | 1.08 | 1.07
54 | CCC(CC)CC1(C(=O)Nc2ccccc2SC(=O)C(C)C)CCCCC1 | 0.898 | 0.927
55 | CCCCCCCCc1ccc(CCC(N)(CO)CO)cc1 [Fingolimod (FTY720) HCl] | 1.08 | 0.0752
56 | COc1cc(C(=O)NC2CCCNC2)cc(OC)c1OC (stereo unspecified) [Troxipide] | 0.843 | 0.92
57 | C[C@]12CC[C@@H]3c4ccc(O)cc4CC[C@H]3[C@@H]1CCC2=O [Estrone] | 0.955 | 0.941
58 | CC(C)c1cc(C(=O)N2Cc3ccc(CN4CCN(C)CC4)cc3C2)c(O)cc1O | 0.582 | 0.545
59 | CN1CCC(COc2cnc(-c3cccc(Cn4nc(-c5cccc(C#N)c5)ccc4=O)c3)nc2)CC1 | 0.78 | 0.216
60 | COc1cnc(NS(=O)(=O)c2ccc(N)cc2)nc1 [Sulfameter] | 0.892 | 1.16
61 | O=NN(CCCl)C(=O)NC1CCCCC1 [Lomustine] | 1.07 | 0.74
62 | COc1cc(CCC(C)=O)ccc1O [Vanillylacetone] | 1.02 | 0.895
63 | COc1cc(Cc2cnc(N)nc2N)cc(OC)c1OC [Trimethoprim] | 0.946 | 0.924
64 | COc1cc2c(cc1OC)CN(CCc1ccc(NC(=O)c3cc(OC)c(OC)cc3NC(=O)c3cnc4ccccc4c3)cc1)CC2 [Tariquidar] | 0.891 | 0.459
65 | COc1ccc([C@H]2CNC(=O)C2)cc1OC1CCCC1 [S- (+)-Rolipram] | 1.2 | 1.04
66 | CNCC[C@H](Oc1cccc2ccccc12)c1cccs1 [Duloxetine HCl] | 1.17 | 1.28
67 | C[C@@H](Oc1cc(-n2cnc3ccc(CN4CCN(C)CC4)cc32)sc1C(N)=O)c1ccccc1C(F)(F)F | 0.797 | 0.364
68 | CC1(COc2ccc3c(c2)ncn3-c2ccc3cccc(N4CCC(N)CC4)c3n2)COC1 | 1.12 | 0.135
